Test results reported in the CheMixHub viscosity set.
Further values from the same series stand in other lists.

Assay: xn = mol fraction of the nth substance listed

N#C[S-].[Na+] + O
viscosity [mPa·s], 101.3 kPa
Details	293.15 K	298.15 K	303.15 K	308.15 K	313.15 K	318.15 K	323.15 K
x1 = 0.1834	–	–	3.332	2.928	2.616	2.337	2.112
x1 = 0.2074	6.103	5.173	4.446	3.874	3.385	3.006	2.687
x1 = 0.2238	7.343	6.175	5.304	4.569	3.983	3.511	3.118
x1 = 0.2425	9.505	7.869	6.607	5.637	4.859	4.266	3.791
x1 = 0.2618	12.18	10.01	8.34	7.038	6.022	5.191	4.541

OCCNCCO + O
Details	viscosity [mPa·s]
298 K, 101.3 kPa, x1 = 0.00216	0.92
298 K, 101.3 kPa, x1 = 0.00361	0.93
298 K, 101.3 kPa, x1 = 0.00841	1.03
298 K, 101.3 kPa, x1 = 0.0131	1.12
298 K, 101.3 kPa, x1 = 0.03464	1.74
298 K, 101.3 kPa, x1 = 0.04057	2.17
298 K, 101.3 kPa, x1 = 0.04888	2.72
308.15 K, 101 kPa, x1 = 0.9012	223.4
313.15 K, 101 kPa, x1 = 0.0501	1.483
313.15 K, 101 kPa, x1 = 0.1004	2.997
313.15 K, 101 kPa, x1 = 0.1509	5.536
313.15 K, 101 kPa, x1 = 0.2006	9.37
313.15 K, 101 kPa, x1 = 0.3008	21.59
313.15 K, 101 kPa, x1 = 0.4014	40.28
313.15 K, 101 kPa, x1 = 0.5011	63.21
313.15 K, 101 kPa, x1 = 0.5957	86.84
313.15 K, 101 kPa, x1 = 0.6968	114.4
313.15 K, 101 kPa, x1 = 0.8034	141.3
313.15 K, 101 kPa, x1 = 0.9012	159.1
318.15 K, 101 kPa, x1 = 0.0501	1.322
318.15 K, 101 kPa, x1 = 0.1004	2.593
318.15 K, 101 kPa, x1 = 0.1509	4.667
318.15 K, 101 kPa, x1 = 0.2006	7.7
318.15 K, 101 kPa, x1 = 0.3008	17.07
318.15 K, 101 kPa, x1 = 0.4014	30.91
318.15 K, 101 kPa, x1 = 0.5011	47.47
318.15 K, 101 kPa, x1 = 0.5957	64.42
318.15 K, 101 kPa, x1 = 0.6968	84.07
318.15 K, 101 kPa, x1 = 0.8034	102.9
318.15 K, 101 kPa, x1 = 0.9012	116
323.15 K, 101 kPa, x1 = 0.0501	1.184
323.15 K, 101 kPa, x1 = 0.1004	2.258
323.15 K, 101 kPa, x1 = 0.1509	3.972
323.15 K, 101 kPa, x1 = 0.2006	6.41
323.15 K, 101 kPa, x1 = 0.3008	13.66
323.15 K, 101 kPa, x1 = 0.4014	24.12
323.15 K, 101 kPa, x1 = 0.5011	36.35
323.15 K, 101 kPa, x1 = 0.5957	49.57
323.15 K, 101 kPa, x1 = 0.6968	62.84
323.15 K, 101 kPa, x1 = 0.8034	76.61
323.15 K, 101 kPa, x1 = 0.9012	85.55
